Measurements as given in PubChem BioAssay AID624296 (National Center for Advancing Translational Sciences (NCATS), 2012).
In all, about 350,000 compounds went through this assay and about 9,900 (2.8%) were called active. This list was built around the results that the source calls inconclusive (neither active nor inactive); the mix of calls is not that of the screen. Calls follow the shape of the dose curve; as a rule, active = well fitted activation curve with a large enough effect; inconclusive = small, poorly fitted or top-dose-only effect; inactive = no such curve, though single readings can be large or run the other way. Potencies of inconclusive entries are left out as doubtful fits.

Assay: A quantitative high throughput screen for small molecules that induce DNA re-replication in MCF 10a normal breast cells. Also: nearly all actives have a fitted effect of over 50% in size. As to activity, positive = re-replication: % of control where 0% means no effect.
Conditions: MCF 10A DNA re-replication, Hoechst nuclear intensity, 48 h; activity, positive = re-replication: at 46.1 µM (top of the series)
Potency is read from the fitted curve at half-maximal effect; tags tell the direction and shape of the fitted curve.

Compound	activity, positive = re-replication	Potency
Clc1nc(Cl)nc(-c2cn(-c3ccccc3)c3ccccc23)n1	inactive: 7.84%	–
Cn1c(C(=O)NCCCN2CCN(c3ccccc3F)CC2)cc2c(=O)n(C)c3ccccc3c21	–	inconclusive [activator, single point]
CC(C)N(Cc1ccccc1)C(=O)COC(=O)/C=C/c1cnc2ccccc2n1	–	inconclusive [activator, single point]
COc1ccc(CNC(=O)c2cc(C)nn2-c2ccccc2)cc1	inactive: 1.39%	–
Cc1noc(C)c1COC(=O)c1ccc(F)c(S(=O)(=O)N2CCCCC2)c1	inactive: 12.1%	–
O=C1c2cc(O)c(O)cc2OC(c2ccc(O)c(O)c2)C1O (centres undefined)	inactive: 4.57%	–
CCCn1c(=O)c(C(=O)NNC(=O)Cc2ccccc2)c(O)c2ccccc21	inactive: 2.62%	–
CCOc1ccc(NC(=O)CCCNC(=O)Cn2cnc3sc(C)c(C)c3c2=O)cc1	–	inconclusive [activator, single point]
Cc1ccc(-c2cnc(NC(=O)CCC(=O)N3CCCCC3)n2C)cc1	inactive: 16.9%	–
COc1ccc(S(=O)(=O)CC(=O)c2cc3cc(Br)ccc3oc2=O)cc1	–	inconclusive [activator, single point]
COCCCNC(=O)C[C@H]1C[C@H](C(=O)N2CCOCC2)[C@@]2(C)c3[nH]c4cc(-c5ccco5)ccc4c3CCN2C1=O	inactive: -13.1%	–
COc1ccc(CCn2c(=N)c(C(=O)NC3CCCC3)cc3c(=O)n4ccccc4nc32)cc1OC	–	active: 16.4 µM
COc1ccc2c(c1)c(C(=O)OCCN(C)C)c(C)n2C	–	inconclusive [activator, partial curve, poor fit]
CSc1nc(-c2ccc(C)cc2)nc(C(Cl)Cl)n1	–	inconclusive [activator, full curve]
Cc1c(C)c2cc(Cl)c(O)c(CN(C)C)c2oc1=O	–	inconclusive [activator, single point]
COc1ccc(Cn2nnnc2C(CC(C)C)N2CCN(c3ccccc3)CC2)cc1 (centres undefined)	–	inconclusive [activator, partial curve, poor fit]
CC(Sc1ccsc1[N+](=O)[O-])C(=O)NCc1ccco1 (centres undefined)	inactive: -1.93%	–
Cc1sc2ncnc(SCc3ccco3)c2c1C	–	active: 14.6 µM
CCOC(=O)CSc1nc(-c2ccccn2)ncc1OC	–	inconclusive [activator, single point]
O=C(c1nnsc1S(=O)(=O)c1ccc(Cl)cc1)N1CCOCC1	–	active: 3.55 µM
CC1CCC2(CC1)NC(=O)N(CC(=O)c1ccc(Cl)s1)C2=O (centres undefined)	inactive: 1.28%	–
CCC1CCC/C1=N\NC(=O)c1ccccc1Cl (centres undefined)	–	inconclusive [activator, full curve, poor fit]
CC1(c2ccc([N+](=O)[O-])cc2)NC(=O)N(CC(=O)Nc2ccc(N3CCCCC3)cc2)C1=O (centres undefined)	inactive: 6.83%	–

Compound	activity, positive = re-replication	Potency
C=CCn1c(SCC(=O)N2CCc3ccccc3C2)nc2ccccc2c1=O	–	inconclusive [activator, single point]
CCCCNC(=O)N(C)c1nncnc1C(=O)NC	–	inconclusive [activator, full curve, poor fit]
COc1ccc(C(=O)Nc2ccc(N3CCN(C(=O)C(C)C)CC3)cc2)cc1[N+](=O)[O-]	inactive: -3.08%	–
C[C@H]1CN([C@@H](C)CO)C(=O)Cc2cc(NC(=O)C3CC3)ccc2O[C@H]1CN(C)Cc1ccc(Oc2ccccc2)cc1	–	inconclusive [activator, single point]
CCN(CC)C(=O)Oc1ccc2oc(=O)cc(-c3cc4cccc(OC)c4o3)c2c1	–	inconclusive [activator, single point]
O=C(OCc1c(-c2ccccc2)ncc2ccccc12)c1ccccc1C(F)(F)F	–	inconclusive [activator, single point]
CC(=O)c1sc(NC(=O)c2ccc(Cl)cc2)nc1C	–	inconclusive [activator, single point]
CCN(CC)C(=O)c1sc2nc(N3CCOCC3)c3c(c2c1N)CCCC3	–	inconclusive [activator, partial curve, poor fit]
O=C(CC(Nc1cccc(Cl)c1Cl)C(=O)OCC(=O)c1cccs1)c1ccccc1 (centres undefined)	–	inconclusive [activator, partial curve, poor fit]
CC(=O)Nc1cccc(OCC(=O)/C=C2\N(C)c3ccccc3C2(C)C)c1	–	inconclusive [activator, single point]
O=C(COc1ccc2ccccc2c1)NN1C(=O)c2ccccc2C1=O	–	inconclusive [activator, single point]
FC(F)(F)c1cccc(N2CCN(c3ccc4nnc(-c5ccccc5)n4n3)CC2)c1	–	inconclusive [activator, single point]
COc1ccc(-n2c(C)cc(/C=N/Nc3nnc(C)n3N)c2C)cc1	–	inconclusive [activator, single point]
O=C(NCc1ccco1)C(=O)NCC1OCCCN1S(=O)(=O)c1ccc(Cl)cc1 (centres undefined)	inactive: 0.995%	–
CC(C)(C)CN1C(=O)C(=O)NC[C@@H]1CCCCN	inactive: -2.86%	–
Cc1ccc(CN2CCN(Cc3ccc(OC(C)C)cc3)CC2CCO)o1 (centres undefined)	–	inconclusive [activator, single point]
OCCN1CCN(c2nc(-c3ccccc3)nc3c2oc2ccccc23)CC1	–	inconclusive [activator, single point]
Cc1cc(-n2c(C)c3c(C)nnc(C)c3c2C)ccc1N	–	active: 20.6 µM
CN1CCN(S(=O)(=O)c2cccc(C(=O)N(Cc3nnc(-c4ccc(Cl)cc4)o3)C3CC3)c2)CC1	inactive: 4.19%	–
COc1ccc(C(=O)Nc2ccc(Cl)cc2C(=O)NCc2ccco2)cc1OC	–	inconclusive [activator, single point]
CN(C)c1ccc(/C=C/C(=O)c2ccc(O)cc2)cc1[N+](=O)[O-]	–	inconclusive [activator, single point]
Cc1csc(NC(=O)C2CCCCC2)n1	–	inconclusive [activator, partial curve, poor fit]
O=C(CCCNS(=O)(=O)c1cccc2nsnc12)N1CCCCC1	–	inconclusive [activator, partial curve, poor fit]

Compound	activity, positive = re-replication	Potency
Cc1ccc(C)c(N2N=C(C(=O)Nc3ccccc3N3CCCC3)CCC2=O)c1	–	active: 20.6 µM
CCOc1ccc2c(c1)OC1(CCC(C)C1)CC2=O (centres undefined)	inactive: -0.205%	–
O=c1cc(Nc2ccc3c(c2)OCCO3)[nH]c(=O)n1C1CCCCC1	–	inconclusive [activator, single point]
Cc1cc(C)c(C#N)c(SCC(=O)OC2CCCCC2)n1	–	inconclusive [activator, partial curve, poor fit]
CCN(CC)CCn1c(=N)n(CC(=O)c2ccc(C)cc2)c2ccccc21	–	inconclusive [activator, partial curve, poor fit]
COC(=O)c1ccccc1NC(=S)NC(=O)c1cccc2ccccc12	–	inconclusive [activator, single point]
COc1cccc(OCCn2c(C)c(/C=N/n3cnnc3)c3ccccc32)c1	–	inconclusive [activator, partial curve, poor fit]
O=C1N=c2ccccc2=C1c1c(O)n(-c2cccc(F)c2)[nH]c1=O	–	inconclusive [activator, single point]
CCCCCCSc1cccc(-c2nc3ccc(C)cn3c2NCc2ccccc2)c1	–	inconclusive [activator, full curve, poor fit]
Cc1cc(C(F)F)n2ncc(C(=O)NCc3ccc(F)cc3)c2n1	inactive: 25%	–
Cc1cc(NC(=O)CCC(=O)N(Cc2ccc(F)cc2)C(C(=O)NC2CCCC2)c2ccco2)no1 (centres undefined)	–	inconclusive [activator, single point]
CCOC(=O)C1(Cc2cccc(F)c2)CCN(Cc2nc(CC)[nH]c2C)CC1	–	active: 12.6 µM
COc1ccc(NC(=O)NCc2ccccn2)c(OC)c1	–	inconclusive [activator, partial curve, poor fit]
CCC(=O)c1ccc(O)cc1	–	inconclusive [activator, full curve, poor fit]
O=C(CN1CCCCCC1)N1c2ccccc2Sc2ccccc21	–	inconclusive [activator, partial curve, poor fit]
OC(COc1ccccc1)CN1CCN(c2ncccn2)CC1 (centres undefined)	inactive: 13.3%	–
O=C(NCc1ccco1)c1noc2c1CCCC2	inactive: 3.99%	–
S=C(N/N=C/c1ccc(Cl)cc1)N1CCOCC1	inconclusive: 55% [activator]	–
CCOc1cc(S(=O)(=O)Nc2cc(C)cc(C)c2)ccc1Cl	–	inconclusive [activator, single point]
CC1=CC2=NC(=O)/C(=C/c3coc4ccccc4c3=O)C(=N)N2O1	–	inconclusive [activator, partial curve, poor fit]
CC1(C(=O)NC(=S)NNC(=O)c2ccncc2)CCCCC1	inactive: 11.3%	–
COc1cc(Cl)ccc1OCc1cc(C(=O)NCC(C)c2ccccc2)no1 (centres undefined)	–	inconclusive [activator, single point]
CCn1cc(CNC(=O)c2cc(-c3ccccc3OC)nc3ccccc23)c(C)n1	–	inconclusive [activator, partial curve, poor fit]
